Earlier results, collected in patent US12492243B2, “DNA antibody constructs for use against Pseudomonas aeruginosa” (priority 2016, dated 2025).

Tested on: P. aeruginosa clinical isolates
Settings: diverse serotypes, multiple type 3 secretion phenotypes, multiple infection sites

B1: anti-PcrV: bioprocessed anti-Pseudomonal IgG mAb, single specificity for P. aeruginosa PcrV protein (antibody)
heavy: EVQLLESGGGLVQPGGSLRLSCAASGFTFSSYAMNWVRQAPGKGLEWVSAITMSGITAYYTDDVKGRFTISRDNSKNTLYLQMNSLRAEDTAVYYCAKEEFLPGTHYYYGMDVWGQGTTVTVSS[letters of human IgG1 constant region omitted]
light: [letters of about 200 residues omitted]
modifications: amino acid sequence of pGX9308 V2L2MD heavy chain; amino acid sequence of pGX9309 V2L2MD light chain
notes: bioprocessed anti-Pseudomonal IgG mAb, single specificity for P. aeruginosa PcrV protein
In the case of B1, the “protection against P. aeruginosa clinical isolates” value is listed as “protective”.
